# Experimental data: the supplement of paper PMC8728848
# This is one part of the list.
# B1: Epa1 (Candida glabrata), Q6FUW5_CANGA (protein)
# chain: MILNPALFLNKCVCIYTTLILLLLTNGGYATSSNDISLASKDPTTFPLGCSPDITTPKKGLSMELYSYDFRKKGSYPCWDAAYLDPNYPRTGYKSHRLLAKVDGVTGNINFYYHATKGCTPQLGHLPASYNYPKPLTMTNFTMLLYGYFRPKVTGFHTFTISADDLLFVNFGAGNAFDCCRRDSSADHFGNYQAYAIWGSKTAKDELTVHLDAGVYYPIRLFYNNREYDGALSFTFKTESNENTVSDFSEYFFSLDDTEEGCPGLISYDSSCASVKTSKIIGIDYHTETPNENLVPITKTIYHLGIPCTGTTTTPLCGSGFYDPLANKCVTINTSSTSSVTKTTSHTTSKEVSFHSSISSQKTLIPKSIPSPYGPIKSQSIPTEMETSSEISSSEYAFSDVISTPSHSPYTKKHSSLNSSSYTSTVIHSLTSYSISQGIFSTSLSEQNITSKSSTDKFSTATSMSNSITQSSIIISQSSTNNENYTTTSMHTSSDKISTETLNNSISTTTSILFSNSSTILKNNTTIISSDKDTHYHPVNPTIVCSTNKTEIICASITQPSISNSNNHWSSSVLRFNSTTVRSTLPSSAGSNETSINVPFSSSTESNASTSSTSTSNSKTVRSTLPSSAGSNETSINVPFSSSTESNTSTSSTSTSNSKTVRSTLPSSAGSNETSINVPFSSSTESNASTSSTSTSNSKTVRSTPFSSAGIIMTSLSQRNNKSASSYASSNSKCYNTADSCRKVHSTPSYLLTSSYTSEGVDYDCSLVSTKLKINDTNCLNNKHTTKSCLKTSVTTTIPTLEIKTARKSSSNTIGLHSYPTSSPNKSISSAPIIGYISSFKTIKTASPSYQTSDLTTITTITSLNNPGSTAVENTHESNDKSRKTSSNDISSKHSVIKETKDAVESSNKSHQTNTLKCSSIIIASSSHNSYESLGGTTLTLTLSKVYSPQNNDTLPFLEISEVNPSRTVLPESSKMMQYLTSTEERNKTARNTIATNIVSISTFHFEGEGNAIRMGYTQLLLMLIGIIVMNIGT
# Key:
# Assay in all cases: glycan array binding signal (z-score within array); higher = stronger binding
# Conditions in all cases: glycan notation: IUPAC condensed, linker removed
# [1] = target: GlcNAc(b1-2)Man(a1-3)[GlcNAc(b1-2)Man(a1-6)]Man(b1-4)GlcNAc(b1-4)GlcNAc
# In short: (§1)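 The Consortium for Functional Glycomics database supplied 3228 glycan arrays, of which those lacking an available protein sequence were dropped. The binding signal, a within-array Z-score, was averaged across arrays of the same protein sequence and across linkers. Negative scores can be read as non-binding.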
# GlcNAc(b1-3)Gal = target: GlcNAc(b1-3)Gal
# In short: as §1
# [2] = target: GlcNAc(b1-3)Gal(b1-3)GalNAc
# In short: as §1
# GlcNAc(b1-3)Gal(b1-4)Glc = target: GlcNAc(b1-3)Gal(b1-4)Glc
# In short: as §1
# [3] = target: GlcNAc(b1-3)Gal(b1-4)GlcNAc
# In short: as §1
# [4] = target: GlcNAc(b1-3)Gal(b1-4)GlcNAc(b1-3)Gal(b1-4)GlcNAc
# In short: as §1
# GlcNAc(b1-3)GalNAc = target: GlcNAc(b1-3)GalNAc
# In short: as §1
# [5] = target: GlcNAc(b1-3)[GlcNAc(b1-4)][GlcNAc(b1-6)]GlcNAc
# In short: as §1
# [6] = target: GlcNAc(b1-3)[GlcNAc(b1-6)]Gal(b1-4)GlcNAc
# In short: as §1
# [7] = target: GlcNAc(b1-3)[GlcNAc(b1-6)]GlcNAc
# In short: as §1
# [8] = target: GlcNAc(b1-4)Gal(b1-4)GlcNAc
# In short: as §1
# [9] = target: GlcNAc(b1-4)GlcNAc(b1-4)GlcNAc
# In short: as §1
# [10] = target: GlcNAc(b1-4)GlcNAc(b1-4)GlcNAc(b1-4)GlcNAc(b1-4)GlcNAc
# In short: as §1
# [11] = target: GlcNAc(b1-4)GlcNAc(b1-4)GlcNAc(b1-4)GlcNAc(b1-4)GlcNAc(b1-4)GlcNAc
# In short: as §1
# [12] = target: GlcNAc(b1-4)[GlcNAc(b1-6)]GalNAc
# In short: as §1
# [13] = target: GlcNAc(b1-6)Gal(b1-4)GlcNAc
# In short: as §1
# GlcNAc(b1-6)GalNAc = target: GlcNAc(b1-6)GalNAc
# In short: as §1
# Kdn(a2-3)Gal(b1-3)GlcNAc = target: Kdn(a2-3)Gal(b1-3)GlcNAc
# In short: as §1
# Kdn(a2-3)Gal(b1-4)GlcNAc = target: Kdn(a2-3)Gal(b1-4)GlcNAc
# In short: as §1
# [14] = target: Man(a1-2)Man(a1-2)Man(a1-3)Man
# In short: as §1
# [15] = target: Man(a1-2)Man(a1-2)Man(a1-3)[Man(a1-2)Man(a1-3)[Man(a1-2)Man(a1-6)]Man(a1-6)]Man(b1-4)GlcNAc(b1-4)GlcNAc
# In short: as §1
# [16] = target: Man(a1-2)Man(a1-2)Man(a1-3)[Man(a1-2)Man(a1-6)[Man(a1-3)]Man(a1-6)]Man(b1-4)GlcNAc(b1-4)GlcNAc
# In short: as §1
# [17] = target: Man(a1-2)Man(a1-2)Man(a1-6)[Man(a1-3)]Man
# In short: as §1
# Man(a1-2)Man(a1-3)Man = target: Man(a1-2)Man(a1-3)Man
# In short: as §1
# [18] = target: Man(a1-2)Man(a1-3)[Man(a1-2)Man(a1-6)]Man
# In short: as §1
# [19] = target: Man(a1-2)Man(a1-3)[Man(a1-3)[Man(a1-6)]Man(a1-6)]Man(b1-4)GlcNAc(b1-4)GlcNAc
# In short: as §1
# [20] = target: Man(a1-2)Man(a1-3)[Man(a1-6)]Man(a1-6)[Man(a1-2)Man(a1-3)]Man(b1-4)GlcNAc(b1-4)GlcNAc
# In short: as §1
# Man(a1-3)[Man(a1-6)]Man = target: Man(a1-3)[Man(a1-6)]Man
# In short: as §1
# [21] = target: Man(a1-3)[Man(a1-6)]Man(a1-6)[Man(a1-3)]Man(b1-4)GlcNAc(b1-4)GlcNAc
# In short: as §1
# [22] = target: Man(a1-3)[Man(a1-6)]Man(b1-4)GlcNAc(b1-4)GlcNAc
# In short: as §1
# Man(b1-4)GlcNAc = target: Man(b1-4)GlcNAc
# In short: as §1
# Neu5Ac(a2-3)Gal = target: Neu5Ac(a2-3)Gal
# In short: as §1
# [23] = target: Neu5Ac(a2-3)Gal(b1-3)GalNAc
# In short: as §1
# [24] = target: Neu5Ac(a2-3)Gal(b1-3)GalNAc(b1-3)Gal(a1-4)Gal(b1-4)Glc
# In short: as §1
# [25] = target: Neu5Ac(a2-3)Gal(b1-3)GalNAc(b1-4)[Neu5Ac(a2-3)]Gal(b1-4)Glc
# In short: as §1
# [26] = target: Neu5Ac(a2-3)Gal(b1-3)GalNAc6S
# In short: as §1
# [27] = target: Neu5Ac(a2-3)Gal(b1-3)GlcNAc
# In short: as §1
# [28] = target: Neu5Ac(a2-3)Gal(b1-3)GlcNAc(b1-3)Gal(b1-3)GlcNAc
# In short: as §1
# [29] = target: Neu5Ac(a2-3)Gal(b1-3)GlcNAc(b1-3)Gal(b1-4)GlcNAc
# In short: as §1
# [30] = target: Neu5Ac(a2-3)Gal(b1-3)GlcNAc6S
# In short: as §1
# [31] = target: Neu5Ac(a2-3)Gal(b1-3)[Fuc(a1-4)]GlcNAc
# In short: as §1
# [32] = target: Neu5Ac(a2-3)Gal(b1-3)[Fuc(a1-4)]GlcNAc(b1-3)Gal(b1-4)[Fuc(a1-3)]GlcNAc
# In short: as §1
# [33] = target: Neu5Ac(a2-3)Gal(b1-3)[Neu5Ac(a2-3)Gal(b1-4)]GlcNAc
# In short: as §1
# [34] = target: Neu5Ac(a2-3)Gal(b1-3)[Neu5Ac(a2-6)]GalNAc
# In short: as §1
# Neu5Ac(a2-3)Gal(b1-4)Glc = target: Neu5Ac(a2-3)Gal(b1-4)Glc
# In short: as §1
# [35] = target: Neu5Ac(a2-3)Gal(b1-4)GlcNAc
# In short: as §1
# [36] = target: Neu5Ac(a2-3)Gal(b1-4)GlcNAc(b1-3)Gal(b1-3)GlcNAc
# In short: as §1
# [37] = target: Neu5Ac(a2-3)Gal(b1-4)GlcNAc(b1-3)Gal(b1-4)GlcNAc
# In short: as §1
# [38] = target: Neu5Ac(a2-3)Gal(b1-4)GlcNAc(b1-3)Gal(b1-4)GlcNAc(b1-3)Gal(b1-4)GlcNAc
# In short: as §1
# [39] = target: Neu5Ac(a2-3)Gal(b1-4)GlcNAc(b1-3)Gal(b1-4)[Fuc(a1-3)]GlcNAc
# In short: as §1
# [40] = target: Neu5Ac(a2-3)Gal(b1-4)GlcNAc(b1-6)[Gal(b1-3)]GalNAc
# In short: as §1
# [41] = target: Neu5Ac(a2-3)Gal(b1-4)GlcNAc6S
# In short: as §1
# [42] = target: Neu5Ac(a2-3)Gal(b1-4)[Fuc(a1-3)]GlcNAc
# In short: as §1
# [43] = target: Neu5Ac(a2-3)Gal(b1-4)[Fuc(a1-3)]GlcNAc(b1-3)Gal
# In short: as §1
# [44] = target: Neu5Ac(a2-3)Gal(b1-4)[Fuc(a1-3)]GlcNAc(b1-3)Gal(b1-4)GlcNAc
# In short: as §1
# [45] = target: Neu5Ac(a2-3)Gal(b1-4)[Fuc(a1-3)]GlcNAc(b1-3)Gal(b1-4)[Fuc(a1-3)]GlcNAc(b1-3)Gal(b1-4)[Fuc(a1-3)]GlcNAc
# In short: as §1
# [46] = target: Neu5Ac(a2-3)Gal(b1-4)[Fuc(a1-3)]GlcNAc6S
# In short: as §1
# [47] = target: Neu5Ac(a2-3)Gal6S(b1-4)GlcNAc
# In short: as §1
# [48] = target: Neu5Ac(a2-3)Gal6S(b1-4)[Fuc(a1-3)]GlcNAc
# In short: as §1
# Neu5Ac(a2-3)GalNAc = target: Neu5Ac(a2-3)GalNAc
# In short: as §1
binder,measurement,setting,value
B1,glycan array binding signal (z-score),[1],-0.55
same,glycan array binding signal (z-score),GlcNAc(b1-3)Gal,-0.544
same,glycan array binding signal (z-score),[2],-0.549
same,glycan array binding signal (z-score),GlcNAc(b1-3)Gal(b1-4)Glc,-0.555
same,glycan array binding signal (z-score),[3],-0.322
same,glycan array binding signal (z-score),[4],0.624
same,glycan array binding signal (z-score),GlcNAc(b1-3)GalNAc,-0.556
same,glycan array binding signal (z-score),[5],-0.551
same,glycan array binding signal (z-score),[6],-0.555
same,glycan array binding signal (z-score),[7],-0.555
same,glycan array binding signal (z-score),[8],-0.554
same,glycan array binding signal (z-score),[9],-0.555
same,glycan array binding signal (z-score),[10],-0.554
same,glycan array binding signal (z-score),[11],-0.556
same,glycan array binding signal (z-score),[12],-0.556
same,glycan array binding signal (z-score),[13],1.77
same,glycan array binding signal (z-score),GlcNAc(b1-6)GalNAc,-0.553
same,glycan array binding signal (z-score),Kdn(a2-3)Gal(b1-3)GlcNAc,-0.549
same,glycan array binding signal (z-score),Kdn(a2-3)Gal(b1-4)GlcNAc,-0.551
same,glycan array binding signal (z-score),[14],-0.552
same,glycan array binding signal (z-score),[15],-0.551
same,glycan array binding signal (z-score),[16],-0.551
same,glycan array binding signal (z-score),[17],-0.555
same,glycan array binding signal (z-score),Man(a1-2)Man(a1-3)Man,-0.545
same,glycan array binding signal (z-score),[18],-0.556
same,glycan array binding signal (z-score),[19],-0.551
same,glycan array binding signal (z-score),[20],-0.556
same,glycan array binding signal (z-score),Man(a1-3)[Man(a1-6)]Man,-0.546
same,glycan array binding signal (z-score),[21],-0.551
same,glycan array binding signal (z-score),[22],-0.554
same,glycan array binding signal (z-score),Man(b1-4)GlcNAc,-0.555
same,glycan array binding signal (z-score),Neu5Ac(a2-3)Gal,-0.552
same,glycan array binding signal (z-score),[23],-0.547
same,glycan array binding signal (z-score),[24],-0.295
same,glycan array binding signal (z-score),[25],-0.552
same,glycan array binding signal (z-score),[26],-0.549
same,glycan array binding signal (z-score),[27],-0.553
same,glycan array binding signal (z-score),[28],-0.546
same,glycan array binding signal (z-score),[29],-0.553
same,glycan array binding signal (z-score),[30],-0.548
same,glycan array binding signal (z-score),[31],-0.552
same,glycan array binding signal (z-score),[32],-0.545
same,glycan array binding signal (z-score),[33],-0.55
same,glycan array binding signal (z-score),[34],-0.553
same,glycan array binding signal (z-score),Neu5Ac(a2-3)Gal(b1-4)Glc,-0.555
same,glycan array binding signal (z-score),[35],-0.556
same,glycan array binding signal (z-score),[36],-0.557
same,glycan array binding signal (z-score),[37],-0.554
same,glycan array binding signal (z-score),[38],-0.544
same,glycan array binding signal (z-score),[39],-0.553
same,glycan array binding signal (z-score),[40],1.96
same,glycan array binding signal (z-score),[41],-0.553
same,glycan array binding signal (z-score),[42],-0.553
same,glycan array binding signal (z-score),[43],-0.547
same,glycan array binding signal (z-score),[44],-0.539
same,glycan array binding signal (z-score),[45],-0.552
same,glycan array binding signal (z-score),[46],-0.545
same,glycan array binding signal (z-score),[47],-0.557
same,glycan array binding signal (z-score),[48],-0.509
same,glycan array binding signal (z-score),Neu5Ac(a2-3)GalNAc,-0.554
